Screen size: about 3,200 compounds; about 110 (3.4%) showed an effect of 50% or more. The list shows a part of the results.

For this assay, the system named is T1, V. cholerae SAD30.
T1 construct: SAD30
Also on record: species or system S. aureus MSSA476 (TSB) or V. cholerae SAD30 (LB); 384-well bacterial growth screen at 25 uM, OD600 relative to DMSO control. To be noted: relative growth, OD600, LB; 25 µM; inhibitor.
Regarding `C=CC(=O)N1CCC(C(=O)NCc2nccn2C)(c2ccccc2)CC1` [3-I10, N-[(1-methyl-1H-imidazol-2-yl)methyl]-4-phenyl-1-(prop-2-enoyl)piperidine-4-carboxamide], the “% of control remaining” value is given as 96.3242%.

For the molecule `C=CC(=O)N[C@H]1CCN(S(=O)(=O)c2ccccc2)C1` [3-P11, N-[(3S)-1-(benzenesulfonyl)pyrrolidin-3-yl]prop-2-enamide], the “% of control remaining” value turned out to be 106.205%.

Consider `C[C@@H](NC(=O)CCl)c1ccc(F)cc1` [6-G21, 2-chloro-N-[(1R)-1-(4-fluorophenyl)ethyl]acetamide], for which the “% of control remaining” value worked out at 102.531%.

For `O=C(CCl)NC(Cc1ccccc1)C(=O)O` (centres unmarked) [6-C13, 2-(2-chloroacetamido)-3-phenylpropanoic acid], the “% of control remaining” value was determined as 88.7288%.

As for `CCOC(=O)C1=C(C)NC(=O)N(C(=O)CCl)C1c1ccccc1` (centres unmarked) [5-I05, ethyl 3-(2-chloroacetyl)-6-methyl-2-oxo-4-phenyl-1,2,3,4-tetrahydropyrimidine-5-carboxylate], the “% of control remaining” value was determined as 97.3416%.

For `O=C(CCl)N(Cc1ccccc1)c1ccccc1` [4-G13, N-benzyl-2-chloro-N-phenylacetamide], the “% of control remaining” value is listed as 94.0263%.

`CCC(C)c1ccccc1NC(=O)C(C)Cl` (centres unmarked) [4-O10, N-[2-(butan-2-yl)phenyl]-2-chloropropanamide]: the “% of control remaining” value is 86.9528%.

`CCCSc1nsc(NC(=O)CCl)n1` [4-G15, 2-chloro-N-[3-(propylsulfanyl)-1,2,4-thiadiazol-5-yl]acetamide]: the “% of control remaining” value is reported as 103.86%.

For the molecule `Cl.O=C(CCl)Nc1cccnn1` [6-O17, 2-chloro-N-(pyridazin-3-yl)acetamide hydrochloride], the “% of control remaining” value is 94.9474%.

On to `C=CC(=O)Nc1cc(OC)cc(S(C)(=O)=O)c1` [1-H16, N-(3-methanesulfonyl-5-methoxyphenyl)prop-2-enamide], for which the “% of control remaining” value was 100.098%.

With `O=C1C=CC(=O)N1c1ccccc1Sc1ccccc1` [10-K12, 1-[2-(phenylsulfanyl)phenyl]-2,5-dihydro-1H-pyrrole-2,5-dione], the “% of control remaining” value was 28.0538%.

Take `Cc1ccc(CNC(=O)C(C)Cl)c2ccccc12` (centres unmarked) [7-O10, 2-chloro-N-[(4-methylnaphthalen-1-yl)methyl]propanamide]: the “% of control remaining” value was 57.0957%.

On to `CC(Cl)C(=O)Nc1nc(-c2cccc([N+](=O)[O-])c2)cs1` (centres unmarked) [4-E08, 2-chloro-N-[4-(3-nitrophenyl)-1,3-thiazol-2-yl]propanamide], for which the “% of control remaining” value amounted to 96.2691%.

For the molecule `CC(Cl)C(=O)N1CCCCCC1c1noc(-c2cnn(C)c2)n1` (centres unmarked) [7-C05, 2-chloro-1-{2-[5-(1-methyl-1H-pyrazol-4-yl)-1,2,4-oxadiazol-3-yl]azepan-1-yl}propan-1-one], the “% of control remaining” value came out at 83.2645%.

In the case of `O=C(CCl)NCC1CC(=O)N(c2ccccc2)C1` (centres unmarked) [5-A09, 2-chloro-N-[(5-oxo-1-phenylpyrrolidin-3-yl)methyl]acetamide], the “% of control remaining” value was 106.252%.

As for `Cc1nc(C)c(S(=O)(=O)N2CCSSCC2)s1` [10-M18, 5-[(2,4-dimethyl-1,3-thiazol-5-yl)sulfonyl]-1,2,5-dithiazepane], the “% of control remaining” value amounted to 94.136%.

In the case of `C=CC(=O)NC(C)c1nnc(-c2ccccc2F)s1` (centres unmarked) [3-N13, N-{1-[5-(2-fluorophenyl)-1,3,4-thiadiazol-2-yl]ethyl}prop-2-enamide], the “% of control remaining” value was determined as 95.6185%.

`Cc1coc(C)c1C(=O)CCl` [10-M11, 2-chloro-1-(2,4-dimethylfuran-3-yl)ethan-1-one]: the “% of control remaining” value is given as 109.41%.

Consider `C=CC(=O)N1CCC(C(=O)N2CCC(C(C)(C)O)CC2)CC1` [2-H14, 1-{4-[4-(2-hydroxypropan-2-yl)piperidine-1-carbonyl]piperidin-1-yl}prop-2-en-1-one], for which the “% of control remaining” value is 91.1223%.

Regarding `COc1ccc(-n2c(C)c(C)c(C#N)c2NC(=O)CCl)cc1` [4-F20, 2-chloro-N-[3-cyano-1-(4-methoxyphenyl)-4,5-dimethyl-1H-pyrrol-2-yl]acetamide], the “% of control remaining” value amounted to 105.413%.

Regarding `O=C(Nc1cc(F)ccc1F)N1CCSSCC1` [10-H11, N-(2,5-difluorophenyl)-1,2,5-dithiazepane-5-carboxamide], the “% of control remaining” value was 95.3828%.

For `Cc1ncsc1C=C(C#N)C(=O)NCCc1ccccc1` [9-H06, 2-cyano-3-(4-methyl-1,3-thiazol-5-yl)-N-(2-phenylethyl)prop-2-enamide], the “% of control remaining” value worked out at 84.6363%.

As for `C=CC(=O)N(Cc1c(C)cccc1OC)C1CCCCNC1=O` (centres unmarked) [1-F09, N-[(2-methoxy-6-methylphenyl)methyl]-N-(2-oxoazepan-3-yl)prop-2-enamide], the “% of control remaining” value came to 86.9955%.

As to `Cc1ncc(CNC(=O)C(C)Cl)n1C` (centres unmarked) [5-J15, 2-chloro-N-[(1,2-dimethyl-1H-imidazol-5-yl)methyl]propanamide], the “% of control remaining” value is reported as 98.3503%.

For `C=CC(=O)N1CCC(C(=O)NCc2c[nH]cn2)CC1` [2-G10, N-[(1H-imidazol-4-yl)methyl]-1-(prop-2-enoyl)piperidine-4-carboxamide], the “% of control remaining” value is recorded as 89.4239%.

For `N#CC(=Cc1ccc(C#N)cc1)C(=O)Nc1ccccc1Cl` [9-O17, N-(2-chlorophenyl)-2-cyano-3-(4-cyanophenyl)prop-2-enamide], the “% of control remaining” value is on record as 91.4344%.

As for `C=CC(=O)NCc1ccccc1N1CCCC(C(N)=O)C1` (centres unmarked) [3-L21, 1-{2-[(prop-2-enamido)methyl]phenyl}piperidine-3-carboxamide], the “% of control remaining” value came to 97.7357%.

For the molecule `CC(Cl)C(=O)NCc1cc(C(F)(F)F)cs1` (centres unmarked) [7-J19, 2-chloro-N-{[4-(trifluoromethyl)thiophen-2-yl]methyl}propanamide], the “% of control remaining” value was 76.9205%.

Turning to `CC(Cl)C(=O)NCc1nnc(C2CCC2)n1C` (centres unmarked) [7-A10, 2-chloro-N-[(5-cyclobutyl-4-methyl-4H-1,2,4-triazol-3-yl)methyl]propanamide], the “% of control remaining” value stood at 85.6435%.

`N#Cc1ccc2c(c1)CCN2C(=O)CCl` [5-N09, 1-(2-chloroacetyl)-2,3-dihydro-1H-indole-5-carbonitrile]: the “% of control remaining” value was 93.4748%.

For the molecule `C=CC(=O)Nc1ccc(C(=O)C(F)F)cc1` [1-M20, N-[4-(2,2-difluoroacetyl)phenyl]prop-2-enamide], the “% of control remaining” value worked out at 89.6861%.

As to `C=CC(=O)NC(CO)c1ccnn1C` (centres unmarked) [2-D17, N-[2-hydroxy-1-(1-methyl-1H-pyrazol-5-yl)ethyl]prop-2-enamide], the “% of control remaining” value came out at 92.203%.

Regarding `C=CC(=O)N1CCC(C(=O)Nc2nnc(CC)s2)CC1` [2-M10, N-(5-ethyl-1,3,4-thiadiazol-2-yl)-1-(prop-2-enoyl)piperidine-4-carboxamide], the “% of control remaining” value is on record as 86.6448%.

As for `O=C(CCl)Cc1c(F)cccc1F` [10-O15, 1-chloro-3-(2,6-difluorophenyl)propan-2-one], the “% of control remaining” value amounted to 99.7467%.

Consider `C=CC(=O)N1CCCC(O)(CC(N)=O)C1` (centres unmarked) [3-K14, 2-[3-hydroxy-1-(prop-2-enoyl)piperidin-3-yl]acetamide], for which the “% of control remaining” value stood at 89.796%.

Regarding `O=S(=O)(c1cc(Cl)cc(Cl)c1)N1CCSSCC1` [10-J09, 5-(3,5-dichlorobenzenesulfonyl)-1,2,5-dithiazepane], the “% of control remaining” value is listed as 99.1233%.

Consider `N#CC(=Cc1c[nH]c2ccccc12)C(=O)Nc1ccc2c(c1)OCCO2` [9-B07, 2-cyano-N-(2,3-dihydro-1,4-benzodioxin-6-yl)-3-(1H-indol-3-yl)prop-2-enamide], for which the “% of control remaining” value turned out to be 51.0537%.

For the molecule `C=CC(=O)NCC(=C)c1ccccc1` [2-B09, N-(2-phenylprop-2-en-1-yl)prop-2-enamide], the “% of control remaining” value was 87.2624%.

`C=CC(=O)N1CCOCC2(CCOCC2)C1` [2-C10, 1-{3,8-dioxa-11-azaspiro[5.6]dodecan-11-yl}prop-2-en-1-one]: the “% of control remaining” value is 90.1959%.

With `COc1cc(Cl)c(C)cc1NC(=O)C(C#N)=Cc1c(C)n[nH]c1C` [8-K10, N-(4-chloro-2-methoxy-5-methylphenyl)-2-cyano-3-(3,5-dimethyl-1H-pyrazol-4-yl)prop-2-enamide], the “% of control remaining” value was found to be 70.0884%.

On to `CC(Cl)C(=O)NC1Cc2ccccc2N(C(=O)C(F)(F)F)C1` (centres unmarked) [7-N19, 2-chloro-N-[1-(2,2,2-trifluoroacetyl)-1,2,3,4-tetrahydroquinolin-3-yl]propanamide], for which the “% of control remaining” value is 97.0097%.

Turning to `C=CC(=O)NCC1(n2ccnn2)CC1` [2-L19, N-{[1-(1H-1,2,3-triazol-1-yl)cyclopropyl]methyl}prop-2-enamide], the “% of control remaining” value stood at 92.3574%.

`CC(Cl)C(=O)N(C)C1CCCc2c1cnn2C` (centres unmarked) [6-L16, 2-chloro-N-methyl-N-(1-methyl-4,5,6,7-tetrahydro-1H-indazol-4-yl)propanamide]: the “% of control remaining” value came to 89.3355%.

With `C=CC(=O)Nc1ccnc(OC)c1` [2-F21, N-(2-methoxypyridin-4-yl)prop-2-enamide], the “% of control remaining” value is given as 104.709%.

For the molecule `CCNC(=O)C(C#N)=Cc1ccc(O)c(OCC)c1` [8-O09, 2-cyano-3-(3-ethoxy-4-hydroxyphenyl)-N-ethylprop-2-enamide], the “% of control remaining” value stood at 72.9436%.

`O=C(CCl)c1ccccn1` [10-J03, 2-chloro-1-(pyridin-2-yl)ethan-1-one]: the “% of control remaining” value is reported as 0%.

`C=CC(=O)NC(C)c1nnnn1-c1ccccc1` (centres unmarked) [2-I11, N-[1-(1-phenyl-1H-1,2,3,4-tetrazol-5-yl)ethyl]prop-2-enamide]: the “% of control remaining” value was 77.0723%.

The record behind these values is publication PMC11995724, “Antibiotic target discovery by integrated phenotypic and activity-based profiling of electrophilic fragments” (Cell chemical biology, 2025).
